Experimental data: PubChem BioAssay AID1347073 (National Center for Advancing Translational Sciences (NCATS), 2019)
Out of some 45,000 compounds screened, about 200 (0.44%) were called active. Not shown: some 7% with an inconclusive outcome. The call rests on the fitted dose curve; in most records, active means well fitted activation curve with a large enough effect; inconclusive means small, poorly fitted or top-dose-only effect; inactive means no such curve, though single readings can be large or run the other way. The list shows a part of the results.

assay: qHTS of TDP-43 Inhibitors: NCGC Sytravon Library Screen; details: yeast TDP-43 toxicity rescue, BacTiter-Glo growth, 24 h; series mostly up to 46.1 µM; growth rescue (activation): at the top concentration; further: 0% is about no effect; nearly all actives have a fitted effect of over 55% in size
Method in brief: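 TDP-43-expressing yeast, pregrown in raffinose, seeded at OD600 0.02 in galactose medium with compound for 24 hr at 30 deg C. Growth read by BacTiter-Glo luminescence, so rescue of toxicity appears as activation.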

Compound	growth rescue (activation)
Cc1ccc(OCC(=O)NCCNC(=O)c2cnccn2)cc1C	inactive: 16.7%
Cc1ccc(-c2cc(C(=O)N/N=C/c3ccccc3O)n[nH]2)o1	inactive: -2.9%
Cc1ccc(S(=O)(=O)NCCn2cnc([N+](=O)[O-])n2)cc1	inactive: 8.95%
CC(=O)c1ccc(N2CCN(C(=S)Nc3cc(C)ccc3C)CC2)cc1	inactive: 29%
Cc1oc2cc3oc(=O)c(CC(=O)NCCC(=O)O)c(C)c3cc2c1C	inactive: -10.5%
Cn1ccc(C(=O)N/N=C/c2c[nH]c3ccccc23)n1	inactive: -27.4%
COc1ccc2c(c1)cc(C(=O)N[C@@H](Cc1ccccc1)C(=O)N[C@@H](C)C(=O)O)n2C	inactive: -10.3%
COc1ccc(C=O)cc1OS(=O)(=O)c1ccccc1[N+](=O)[O-]	inactive: 6.42%
COc1ccc(C(=O)NN2C(=O)C3C(c4ccccc4)C=CC(c4ccccc4)C3C2=O)cc1 (configuration not stated)	inactive: 7.82%
O=C(CN1C(=O)/C(=C2\SC(=S)N(CCS(=O)(=O)O)C2=O)c2ccccc21)Nc1cccc(Br)c1	inactive: -16%
COc1cccc(/C=N/Nc2ccc([N+](=O)[O-])cn2)c1O	inactive: -39.6%
Cc1nnc(NC(=O)C(C)Sc2nnc(CCNC(=O)c3ccccc3F)n2C)s1 (configuration not stated)	inactive: 9.07%
Cc1ccc2c(c1)C(c1ccccc1)N(C(=O)c1ccccc1[N+](=O)[O-])CC(=O)N2 (configuration not stated)	inactive: 12.4%
CCCn1c(N)c(N(CCOC)C(=O)c2cccc(C(F)(F)F)c2)c(=O)[nH]c1=O	inactive: -13.9%
Cc1cc(C)c(OCCN2CC(C)OC(C)C2)c(Br)c1 (configuration not stated)	inactive: -14.2%
Cc1ccc([N+](=O)[O-])c(OCc2ncc(Cl)n2C)c1	inactive: 25.9%
COc1ccc(C)cc1NC(=O)CCN1CC(C)OC(C)C1 (configuration not stated)	inactive: 5.47%
COc1ccc(C(=O)Sc2nncc3ccccc23)cc1	inactive: -9.76%
COC(=O)c1cc(OC)c(OC)cc1NC(=O)CCNC(=O)c1ccco1	inactive: 5.8%
O=C(NN1C(=O)C2C(C1=O)C1C=CC2C12CC2)c1ccc(Cl)cc1 (configuration not stated)	inactive: 4.59%
Cn1c(SCC(=O)Nc2ccccc2Cl)nnc1C1CC1	inactive: -18.2%
O=C(Nc1cc(F)ccc1F)C1CCN(S(=O)(=O)c2cccc3nonc23)CC1	inactive: 7.54%

Compound	growth rescue (activation)
CCC1CCc2c(sc(NC(=O)c3cccnc3)c2C(N)=O)C1 (configuration not stated)	inactive: 11%
O=C(NS(=O)(=O)Oc1ccc(F)cc1F)OC[C@@H]1CCCN2CCCCC12 (some centres not stated)	inactive: -0.773%
Cc1cc(=O)n(-c2ccc(Cl)cc2)c(=O)[nH]1	inactive: 12.6%
CCOC(=O)C1CCCN(c2c(NCCC(C)C)c(=O)c2=O)C1 (configuration not stated)	inactive: -5.13%
C=CCNC(=O)Nc1ccc2nc(C)sc2c1	inactive: -11.6%
CC(=O)C1=C(S(=O)(=O)c2ccc(C)cc2)CS(=O)(=O)C1	inactive: 19.8%
Cc1cnc(NC(=O)C2COc3ccccc3O2)s1 (configuration not stated)	inactive: 17.8%
Cc1ccc(-c2cc(-c3ccccc3)no2)c(O)c1	inactive: 4.08%
O=C(OCc1ccccc1)/C(=C/c1cccc(Br)c1)NC(=O)c1ccco1	inactive: 35.9%
Cc1c(C(=O)O)sc2[nH]c(=O)n(Cc3ccccc3)c(=O)c12	inactive: -2.76%
O=C(N/N=C/c1cccc(O)c1)c1cc(C2CC2)nc2ccccc12	inactive: 0.21%
O=C(COC(=O)c1ccco1)Nc1cc(S(=O)(=O)N2CCOCC2)ccc1Cl	inactive: 4.99%
CC(=O)Nc1ccc(NS(=O)(=O)c2cccc3nonc23)cc1	inactive: 4.2%
CC(=O)c1ccc(NC(=O)c2cc(=O)[nH]c3ccccc23)cc1	inactive: -0.0598%
CCOc1ccc(N2C(=O)/C(=C/c3ccccc3OCC(=O)OC)N(CC(=O)OC)C2=S)cc1	inactive: 12.6%
COc1ccc(/C=C/c2cc(C(F)(F)F)[nH]c(=O)n2)cc1OC	inactive: 7.56%
Cc1ccc(NC(=S)N2CCC(NC(=O)C3CCCCC3)CC2)cc1C	inactive: -20.6%
O=C(Cc1ccc(Br)cc1)OCC(=O)c1ccc[nH]1	inactive: 15.1%
CCc1ccc(OC(C)C(=O)Nc2ccccc2C(=O)N2CCOCC2)cc1 (configuration not stated)	inactive: -6.88%
NC(=O)N/N=C/c1c(O)ccc2oc3c(c12)CCCC3	inactive: 4.94%
Nc1nc2ccc(C(=O)NC3CCCCC3)cc2s1	inactive: -7.46%
O=C(N/N=C/c1ccccn1)c1cc(-c2ccc(Cl)s2)[nH]n1	inactive: -1.94%

Compound	growth rescue (activation)
O=C(COC(=O)c1ccc(F)cc1F)Nc1ncccn1	inactive: -6.09%
O=S(=O)(/C=C/c1ccccc1)N1CCNCC1	inactive: 1.76%
CC(=O)NC1C(=O)N=C(SCC(=O)Nc2sc3c(c2C#N)CCCCCC3)NC1=O (configuration not stated)	inactive: -1.98%
O=C(COc1ccccc1-c1ccccc1)N/N=C/c1ccc2ccccc2c1	inactive: -8.41%
Cn1c(=NC(=O)C2CCN(S(=O)(=O)c3cccs3)CC2)sc2ccccc21	inactive: 10.4%
O=[N+]([O-])c1ccc(COc2ccccc2/C=N/O)cc1	inactive: -1.14%
Cc1cc(NC(=O)C2CCCCC2)ccc1NC(=O)c1ccccc1Cl	inactive: 17.7%
O=C(O)CCCCCn1c(O)c(C=C2N=c3ccccc3=N2)sc1=S	inactive: 26.7%
COc1cc(Br)c(C(=O)c2nccc3cc(OC)c(OC)cc23)cc1OC	inactive: 22.3%
COc1cc(C2Nc3ccccc3NC3=C2C(=O)CC(c2ccc(OC)c(OC)c2)C3)ccc1O (configuration not stated)	inactive: -11%
O=S(=O)(c1ccccc1)N1CN(Cc2ccc(F)cc2)c2nc3ccccc3nc21	inactive: 11.7%
O=c1[nH]cnc2sc3c(c12)CCC3	inactive: -12.9%
O=C(CCC(=O)N1CCCC1)Nc1ccc([N+](=O)[O-])cc1	inactive: 16.5%
COc1cccc(C(=O)Oc2ccc(N3C(=O)CCC3=O)c(C)c2)c1	inactive: 14.1%
O=[N+]([O-])c1cccc(-n2nncc2-c2ccccc2)c1	inactive: 17.7%
CSc1cccc(NC(=O)C2CCCN(S(=O)(=O)c3cccs3)C2)c1 (configuration not stated)	inactive: 5.37%
O=C(O)c1ccc(/C=N/NC(=O)c2cc(-c3ccc4c5c(cccc35)CC4)n[nH]2)cc1	inactive: 7.96%
CC(C)Oc1cccc(NC(=O)C2(C)CCCN2C(=O)C(C)C)c1 (configuration not stated)	inactive: -3.65%
Cc1c(-n2c(SCC(=O)NC(C)C(C)C)nc3ccccc3c2=O)c(=O)n(-c2ccccc2)n1C (configuration not stated)	inactive: 10.3%
O=C(Nc1ccc(N2CCN(C(=O)c3ccccc3)CC2)cc1)c1cccs1	inactive: -19.1%
CN(CC(=O)Nc1ccccc1C(F)(F)F)C(=O)Cc1ccccc1F	inactive: -0.412%
OC[C@@H]1CN(Cc2ccc3c(c2)OCO3)C[C@H](n2cnc3c(NC4CCC4)ncnc32)O1	inactive: 11.9%

Compound	growth rescue (activation)
CCc1cc(C(=O)O)c(NC(=O)c2cc(OC)c(OC)c(OC)c2)s1	inactive: 3.91%
O=C(O)C1CCN(C(=O)CSc2nc3cc(Cl)ccc3c(=O)n2Cc2ccccc2)CC1	inactive: 13.8%
CCN(CC)S(=O)(=O)c1cccc(NC(=O)c2ccc(C#N)cc2)c1	inactive: 14.4%
O=C(NCC1CCCCC1)c1ccccc1[N+](=O)[O-]	inactive: 12%
Cc1cc(C)cc(NC(=O)CCN2C(=O)c3ccccc3C2=O)c1	inactive: -14.5%
O=C(OCCN=C1NS(=O)(=O)c2ccccc21)c1cccs1	inactive: -10.5%
CCOC(=O)C1(CCOc2ccccc2)CCN(Cc2ccc(CO)o2)CC1	inactive: -0.277%
COc1ccc(/C=N/Nc2cc(C)nc(-n3nc(C)cc3C)n2)c(OC)c1	inactive: 13.2%
CCc1ccccc1NC(=O)C1C2C=CC(O2)C1C(=O)O (configuration not stated)	inactive: -1.23%
O=C(Nc1cccc(O)c1)c1ccc(C(=O)c2ccccc2)o1	inactive: 15.7%
Cn1cc(Br)c(C(=O)NNC(=O)Nc2ccccc2C(F)(F)F)n1	inactive: -18%
O=C(CN1C(=O)NC2(CCCC2)C1=O)Nc1ccc(C(F)(F)F)cc1	inactive: -6.03%
CNC(=O)c1cc(NC(=O)CCn2nc(-c3ccc(C)cc3)c3ccccc3c2=O)ccc1OC	inactive: 2.01%
COc1ccc(NC(=S)N(CCN(C)C)C(C)c2ccco2)cc1 (configuration not stated)	inactive: 11%
CC1CCc2c(sc3nc(CSc4nnnn4C)[nH]c(=O)c23)C1 (configuration not stated)	inactive: 19.1%
Cn1nnnc1Sc1ncnc2scc(-c3ccccc3)c12	inactive: 36.4%
COc1ccc(C)cc1N(C(=O)c1ccccc1)c1nc2ccccc2s1	inactive: -1.47%
CC(C)Sc1nc2ccc(Br)cc2[nH]1	inactive: 16.1%
Cc1sc2ncnc(SCC(=O)N3CCCC3)c2c1C	inactive: 10.7%
CCC(CC)NC(=O)c1cc(OC)c(OC)c(OC)c1	inactive: -21.8%
CCCN1CCC(NC(=O)CCc2nnc(Cc3cc(OC)ccc3OC)o2)CC1	inactive: 7.63%
S=C(Nc1ccc(Cl)cc1Cl)NC1CCN(Cc2ccccc2)CC1	inactive: 10.9%

Compound	growth rescue (activation)
O=C(O)c1ccccc1NS(=O)(=O)c1cccc(NS(=O)(=O)c2cc(Br)ccc2Br)c1	inactive: 10.7%
Nc1cc(=O)[nH]c(SCC(=O)Nc2cc(S(=O)(=O)N3CCCCCC3)ccc2Cl)n1	inactive: -15.7%
O=C(c1ccco1)N1CCN(Cc2cccc3ccccc23)CC1	inactive: 5.25%
CCCNCc1cc(OC)c(OCc2ccccc2)cc1Br	inactive: -4.29%
COC(=O)c1cc(C(=O)N2CCN(c3ncccn3)CC2)cc([N+](=O)[O-])c1	inactive: -36.9%
Cc1nn(C(C)C(=O)O)c(C)c1[N+](=O)[O-] (configuration not stated)	inactive: 5.54%
COc1cc2c(cc1OC)CN(C(=O)C(CCSC)NS(=O)(=O)c1ccc(C)cc1)CC2 (configuration not stated)	inactive: 8.09%
O=C(Nc1ccc(F)cc1)c1nc2c(nnn2Cc2cccc3ccccc23)c(=O)[nH]1	inactive: -15.1%
CS(=O)(=O)N1CCC(C(=O)N2CCN(C(c3ccccc3)c3ccccc3)CC2)CC1	inactive: -13.8%
Cc1nc2ccc(C(=O)N3CCN(Cc4ccccc4)CC3)cc2[nH]1	inactive: 14.3%
COCCNC(=O)C(c1ccc(C)o1)N(C(=O)C(=O)NC1CCCCC1)c1ccc(F)cc1 (configuration not stated)	inactive: 16%
Cc1cc(Br)cnc1NC(=S)Nc1ccc(F)cc1F	inactive: 9.3%
O=[N+]([O-])c1ccc(/C=N/n2cn[nH]c2=S)cc1	inactive: 7.2%
O=C(Nc1ccccc1NC(=O)c1ccco1)c1ccccc1	inactive: -5.08%
CCOC(=O)c1ccc(S(=O)(=O)NCCN2CCOCC2)cc1	inactive: 0.868%
CCN(CC)CCCN(Cc1cc2cc(OC)ccc2[nH]c1=O)C(=O)Nc1ccc(F)cc1	inactive: -3.96%
CC(C)(C)c1ccccc1NC(=O)Nc1nc(C(N)c2ccccc2)cs1 (configuration not stated)	inactive: 2.89%
CCCCCCCCCn1c2c(c(=N)c3c1CCC3)CCCC2	inactive: -90.3%
CCCCCn1c(=O)[nH]c2cc(C(=O)N3CCN(c4ccc(F)cc4)CC3)ccc2c1=O	inactive: 8.82%
